The text below walks through data of a collection of fitness landscapes (doi:10.1016/j.celrep.2020.107928).

The labels stand for the following.
B1: Caulobacter ParB omega fusion; a variant is named by its letters at X, in order, B8GW30 (parent)
chain: MESVVVGEPGMSEGRRGLGRGLSALLGEVDAAPAQAPGEQLGGSREAPIEILQRNPDQPRRTFREEDLEDLSNSIREKGVLQPILVRPSPDTAGEYQIVAGERAWRAAQRAGLKTVPIMVRELDDLAVLEIGIIENVQRADLNVLEEALSYKVLMEKFERTQENIAQTIGKSXSHVANXMRLLXLPDEVQSYLVSGELTAXHARAIAAAADPVALAKQIIEGGLSVRETEALARKAPNLSAGKSKGGRPPRVKDTDTQALESDLSSVLGLDVSIDHRGSTGTLTITYATLEQLDDLCNRLTRGI

Over roughly 81,000 sequences, “one-hybrid fitness for binding NBS DNA” has its median near -0.1; the highest 2% begin near 0.36. The list shows a part of the results.

The variants in this experiment derive from B1. The experiment in a line: one-hybrid fitness for binding NBS DNA (the Noc-binding site; scaled: cognate 1, non-cognate 0); higher = stronger binding. The note with it: with NBS DNA site. The essentials: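 Fitness is the rescaled log change in variant-to-wild-type read ratio, measured by Illumina sequencing of plasmids before and after bacterial one-hybrid selection. The scale puts cognate at 1 and non-cognate at 0. Selection of Caulobacter ParB libraries, four specificity codons randomised, took place in E. coli USO with a HIS3 reporter, site 19 bp from the promoter, over 48 hours at 37°C on M9-minus-histidine with 0.1 mM IPTG and 5 mM 3-AT.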
As for QTFQ, the “one-hybrid fitness for binding NBS DNA” value is at most 0.2.
The value for RGYN was at most 0.2; that for VGLY was at most 0.2.
The value for THDW was at most 0.2; that for VKTY was at most 0.2.
Consider PCRY, for which the “one-hybrid fitness for binding NBS DNA” value is at most 0.2.
RTPT: the “one-hybrid fitness for binding NBS DNA” value stood at 0.201.
As for HVAI, the “one-hybrid fitness for binding NBS DNA” value was at most 0.2.
Then ESLH, with at most 0.2; and TYRN, with at most 0.2; and APCR, with at most 0.2.
Take RYTL: the “one-hybrid fitness for binding NBS DNA” value is at most 0.2.
Consider VRHC, for which the “one-hybrid fitness for binding NBS DNA” value was at most 0.2.
The value for ESWS was at most 0.2; that for VDAC was at most 0.2.
Then QACS, with 0.272; and ICFG, with at most 0.2; and PTRA, with at most 0.2.
Regarding VIIC, the “one-hybrid fitness for binding NBS DNA” value was at most 0.2.
For the variant CYMQ, the “one-hybrid fitness for binding NBS DNA” value was at most 0.2.
In the case of YLRF, the “one-hybrid fitness for binding NBS DNA” value was at most 0.2.
The value for TSPP was at most 0.2.
In the case of QTQI, the “one-hybrid fitness for binding NBS DNA” value is at most 0.2.
The value for QCWS was 0.301; that for PAFG was at most 0.2; that for NVFR was at most 0.2.
Then RTQC, with at most 0.2; and QTDF, with at most 0.2; and TLYG, with at most 0.2.
As to AQWR, the “one-hybrid fitness for binding NBS DNA” value was at most 0.2.
Then CRRD, with at most 0.2; and QQHE, with at most 0.2.
Then HWKG, with at most 0.2.
As for GRVV, the “one-hybrid fitness for binding NBS DNA” value is at most 0.2.
Then QARL, with 0.221; and AGSR, with at most 0.2; and EMWC, with at most 0.2.
Regarding HMIF, the “one-hybrid fitness for binding NBS DNA” value is at most 0.2.
The value for RKHM was at most 0.2.
Then CMQG, with at most 0.2.
The value for NAPM was at most 0.2; that for ASNM was at most 0.2; that for TMYV was at most 0.2.
In the case of QYKT, the “one-hybrid fitness for binding NBS DNA” value was 0.722.
As for RVWF, the “one-hybrid fitness for binding NBS DNA” value was at most 0.2.
Then FWEW, with at most 0.2.
Then VVKK, with at most 0.2.
The value for PGGG was at most 0.2; that for GSHS was at most 0.2.
Regarding FWIS, the “one-hybrid fitness for binding NBS DNA” value is at most 0.2.
The value for REGM was at most 0.2.
Then PQSN, with at most 0.2; and CMSL, with at most 0.2; and TSSN, with at most 0.2.
As for EGTG, the “one-hybrid fitness for binding NBS DNA” value is at most 0.2.
As to QYKL, the “one-hybrid fitness for binding NBS DNA” value amounted to 0.246.
The value for LDCE was at most 0.2; that for MGAY was at most 0.2.
Take GSTG: the “one-hybrid fitness for binding NBS DNA” value was at most 0.2.
The value for YNSG was at most 0.2; that for CLGI was at most 0.2; that for FACR was at most 0.2.
Regarding IFHT, the “one-hybrid fitness for binding NBS DNA” value is at most 0.2.
The value for GPAP was at most 0.2.
As to MAWG, the “one-hybrid fitness for binding NBS DNA” value is at most 0.2.
Then RQRP, with at most 0.2; and KLFV, with at most 0.2.
Then PSLK, with at most 0.2; and PFYL, with at most 0.2; and DFTW, with at most 0.2.
The value for IRRH was 0.232.
As for VSTT, the “one-hybrid fitness for binding NBS DNA” value is at most 0.2.
On to TSHY, for which the “one-hybrid fitness for binding NBS DNA” value is at most 0.2.
The value for VVFM was at most 0.2.
The value for GPKI was at most 0.2; that for QVRT was 0.56; that for YPRV was at most 0.2.
For the variant NLRY, the “one-hybrid fitness for binding NBS DNA” value was at most 0.2.
On to NPRG, for which the “one-hybrid fitness for binding NBS DNA” value is at most 0.2.
The value for RRMN was 0.245; that for PLEP was at most 0.2; that for QSTC was at most 0.2.
The value for YIGC was at most 0.2; that for ELKL was at most 0.2.
Then SEYG, with at most 0.2; and QAVG, with at most 0.2.
As for TRCW, the “one-hybrid fitness for binding NBS DNA” value is at most 0.2.
With DVGL, the “one-hybrid fitness for binding NBS DNA” value is at most 0.2.
The value for DAQC was at most 0.2; that for RPGW was at most 0.2; that for GSPM was at most 0.2.
The value for CYNC was at most 0.2.
The value for VWDS was at most 0.2; that for PQIT was at most 0.2.
Consider TVCF, for which the “one-hybrid fitness for binding NBS DNA” value is at most 0.2.
The value for LEKR was at most 0.2; that for QDFG was at most 0.2.
Consider QCSL, for which the “one-hybrid fitness for binding NBS DNA” value was at most 0.2.
The value for RISL was at most 0.2; that for ITAN was at most 0.2; that for HPYQ was at most 0.2.
Then EKRR, with at most 0.2; and KPFW, with at most 0.2.
The value for EDMT was at most 0.2; that for LNWT was at most 0.2.
RTHH: the “one-hybrid fitness for binding NBS DNA” value stood at 0.262.
The value for EHND was at most 0.2; that for PQDM was at most 0.2; that for HKEV was at most 0.2.
Then KDHF, with at most 0.2; and TARD, with at most 0.2.
Then HGPG, with at most 0.2.
On to YMTR, for which the “one-hybrid fitness for binding NBS DNA” value is at most 0.2.
Then AGLL, with at most 0.2; and NAMC, with at most 0.2.
For KHRQ, the “one-hybrid fitness for binding NBS DNA” value is at most 0.2.
Then VFPF, with at most 0.2; and RDSA, with at most 0.2; and FTCT, with at most 0.2.
With YQMC, the “one-hybrid fitness for binding NBS DNA” value is at most 0.2.
Then AHQW, with at most 0.2; and QFLS, with at most 0.2; and RMKM, with 0.216.
Then PRYN, with at most 0.2; and DINY, with at most 0.2; and VTMT, with at most 0.2.
Regarding VVLC, the “one-hybrid fitness for binding NBS DNA” value is at most 0.2.
The value for MHGT was at most 0.2; that for QHER was 0.288.
Take MVCT: the “one-hybrid fitness for binding NBS DNA” value was at most 0.2.
The value for PTWF was at most 0.2.
Consider FLPS, for which the “one-hybrid fitness for binding NBS DNA” value was at most 0.2.
Then YKFC, with at most 0.2.
The value for LYGT was at most 0.2.
Then VMYC, with at most 0.2; and TKSC, with at most 0.2; and FSSF, with at most 0.2.
Regarding QQLM, the “one-hybrid fitness for binding NBS DNA” value was at most 0.2.
Then SYGR, with at most 0.2; and GSHH, with at most 0.2.
As to GPFC, the “one-hybrid fitness for binding NBS DNA” value was at most 0.2.
Then LPFD, with at most 0.2; and MLTL, with at most 0.2; and IWDG, with at most 0.2.
As for QRLQ, the “one-hybrid fitness for binding NBS DNA” value came out at 0.327.
Then QDGG, with at most 0.2; and TDCI, with at most 0.2; and IKTV, with at most 0.2.
Then SARN, with at most 0.2.
Then DGTM, with at most 0.2; and QPKA, with at most 0.2; and QLDY, with at most 0.2.
In the case of LNMH, the “one-hybrid fitness for binding NBS DNA” value is at most 0.2.
For YTHF, the “one-hybrid fitness for binding NBS DNA” value was at most 0.2.
Then SPPL, with at most 0.2; and CVKM, with at most 0.2.
Then WRCR, with at most 0.2.
Then GHPI, with at most 0.2; and TVNG, with at most 0.2; and MRTY, with at most 0.2.
In the case of VAHS, the “one-hybrid fitness for binding NBS DNA” value was at most 0.2.
The value for FINR was at most 0.2.
Then LTER, with at most 0.2.
Take WSNY: the “one-hybrid fitness for binding NBS DNA” value is at most 0.2.
Then HWTK, with at most 0.2; and RIWN, with at most 0.2.
The value for FNTD was at most 0.2; that for RNRP was at most 0.2.
The value for WMNT was at most 0.2; that for YTWS was at most 0.2; that for RVFW was at most 0.2.
Take AKQY: the “one-hybrid fitness for binding NBS DNA” value is at most 0.2.
As for MISR, the “one-hybrid fitness for binding NBS DNA” value is at most 0.2.
As for DRCD, the “one-hybrid fitness for binding NBS DNA” value is at most 0.2.
The value for SITA was at most 0.2.
As for VWRT, the “one-hybrid fitness for binding NBS DNA” value was at most 0.2.
Consider DAET, for which the “one-hybrid fitness for binding NBS DNA” value is at most 0.2.
Then QTYG, with at most 0.2.
Then TPPF, with at most 0.2; and PWDG, with at most 0.2; and RGPA, with at most 0.2.
Then RQIP, with at most 0.2; and NAYG, with at most 0.2; and IRCW, with at most 0.2.
Take VRTD: the “one-hybrid fitness for binding NBS DNA” value is at most 0.2.
On to SATV, for which the “one-hybrid fitness for binding NBS DNA” value was at most 0.2.
Regarding TPGV, the “one-hybrid fitness for binding NBS DNA” value is at most 0.2.
Turning to NRER, the “one-hybrid fitness for binding NBS DNA” value is at most 0.2.
The value for RMMW was at most 0.2; that for FPQC was at most 0.2; that for SQVQ was at most 0.2.
Regarding QHKR, the “one-hybrid fitness for binding NBS DNA” value stood at 1.03.
As to AADY, the “one-hybrid fitness for binding NBS DNA” value was at most 0.2.
CSVI: the “one-hybrid fitness for binding NBS DNA” value is at most 0.2.
Regarding SQQS, the “one-hybrid fitness for binding NBS DNA” value is at most 0.2.
